Test results published in PMC6737914.
Where a chain is given by its changes, count along the chain named. In names and notes the source's numbering stands. No constants are given. Whether binding was seen depends on the method and setting. Binding seen in cells or lysates may run through a third protein. Some binding calls cover weakened binding; strength is not graded here. Each block holds one binder with its values, some of them ahead of it.

The chains behind the UniProt entries cited, without tags or fusion partners. Where a name states a change or a piece, a line headed by the entry shows the natural chain unless it says otherwise.
UniProt P38682: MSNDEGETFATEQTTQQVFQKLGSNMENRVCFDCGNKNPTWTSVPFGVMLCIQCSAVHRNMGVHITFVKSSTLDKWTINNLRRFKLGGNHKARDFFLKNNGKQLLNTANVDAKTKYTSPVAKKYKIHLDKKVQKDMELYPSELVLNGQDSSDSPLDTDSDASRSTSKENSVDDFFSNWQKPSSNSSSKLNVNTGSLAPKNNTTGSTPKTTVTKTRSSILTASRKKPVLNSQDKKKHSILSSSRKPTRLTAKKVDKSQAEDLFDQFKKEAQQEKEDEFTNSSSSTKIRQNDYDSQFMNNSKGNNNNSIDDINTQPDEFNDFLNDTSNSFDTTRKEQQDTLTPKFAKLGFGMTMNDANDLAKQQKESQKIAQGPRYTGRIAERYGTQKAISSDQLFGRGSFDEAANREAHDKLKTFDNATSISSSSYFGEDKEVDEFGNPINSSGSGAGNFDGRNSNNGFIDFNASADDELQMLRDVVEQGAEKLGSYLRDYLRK
UniProt P53622: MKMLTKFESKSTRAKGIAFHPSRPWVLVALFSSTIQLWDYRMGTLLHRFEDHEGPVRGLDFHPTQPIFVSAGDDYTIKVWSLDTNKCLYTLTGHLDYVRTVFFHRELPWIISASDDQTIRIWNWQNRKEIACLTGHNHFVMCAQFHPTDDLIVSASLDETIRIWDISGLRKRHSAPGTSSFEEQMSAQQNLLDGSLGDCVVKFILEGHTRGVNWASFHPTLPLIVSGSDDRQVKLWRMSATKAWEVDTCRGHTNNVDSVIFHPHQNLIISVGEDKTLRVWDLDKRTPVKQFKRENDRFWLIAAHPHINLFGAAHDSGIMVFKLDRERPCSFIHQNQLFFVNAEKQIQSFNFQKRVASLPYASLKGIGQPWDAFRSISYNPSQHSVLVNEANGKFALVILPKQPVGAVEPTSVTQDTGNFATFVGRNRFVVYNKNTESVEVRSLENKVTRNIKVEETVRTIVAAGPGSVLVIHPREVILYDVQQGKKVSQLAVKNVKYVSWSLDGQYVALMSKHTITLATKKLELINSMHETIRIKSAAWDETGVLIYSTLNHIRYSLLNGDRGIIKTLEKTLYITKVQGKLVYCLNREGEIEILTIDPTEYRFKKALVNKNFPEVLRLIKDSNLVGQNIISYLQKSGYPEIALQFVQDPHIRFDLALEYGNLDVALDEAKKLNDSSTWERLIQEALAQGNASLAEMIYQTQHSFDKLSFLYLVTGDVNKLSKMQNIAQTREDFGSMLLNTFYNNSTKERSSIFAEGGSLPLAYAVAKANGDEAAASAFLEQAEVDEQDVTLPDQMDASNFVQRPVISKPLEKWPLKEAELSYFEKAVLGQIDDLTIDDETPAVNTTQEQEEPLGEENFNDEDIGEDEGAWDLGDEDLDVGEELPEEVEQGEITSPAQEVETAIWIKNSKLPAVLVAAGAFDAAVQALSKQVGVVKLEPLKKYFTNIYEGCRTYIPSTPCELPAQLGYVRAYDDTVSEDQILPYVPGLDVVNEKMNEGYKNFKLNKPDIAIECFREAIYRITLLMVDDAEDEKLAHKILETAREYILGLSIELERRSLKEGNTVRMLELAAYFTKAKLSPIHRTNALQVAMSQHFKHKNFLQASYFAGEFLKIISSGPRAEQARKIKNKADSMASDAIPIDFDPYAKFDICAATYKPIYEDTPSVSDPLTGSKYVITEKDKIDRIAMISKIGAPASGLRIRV

Legend:
[1] = biological target: Glo3 (bait of the affinity purification following stabilising crosslinking) (S. cerevisiae) (UniProt P38682); test: cross-linking; affinity purification following stabilising crosslinking (Fig. S3A-E; details not shown)
[2] = substrate: COPI coat (coatomer), heptamer of α, β′, ε, β, γ, δ and ζ subunits (S. cerevisiae (endogenous in S. cerevisiae)) (UniProt P53622); test: co-IP; affinity chromatography of GFP-tagged Glo3 or its variants on µMACS GFP micro-beads from detergent extracts (1% Triton X-100) of Δglo3 or Δgcs1 strains; western blots for COPI and Gcs1
[3] = biological target: GFP-tagged Glo3 (S. cerevisiae) (UniProt P38682); test: as above

binding [1]: binds
B1: S. cerevisiae Snf1 (enzyme, UniProt P06782 1-633)
chain: MSSNNNTNTAPANANSSHHHHHHHHHHHHHGHGGSNSTLNNPKSSLADGAHIGNYQIVKTLGEGSFGKVKLAYHTTTGQKVALKIINKKVLAKSDMQGRIEREISYLRLLRHPHIIKLYDVIKSKDEIIMVIEYAGNELFDYIVQRDKMSEQEARRFFQQIISAVEYCHRHKIVHRDLKPENLLLDEHLNVKIADFGLSNIMTDGNFLKTSCGSPNYAAPEVISGKLYAGPEVDVWSCGVILYVMLCRRLPFDDESIPVLFKNISNGVYTLPKFLSPGAAGLIKRMLIVNPLNRISIHEIMQDDWFKVDLPEYLLPPDLKPHPEEENENNDSKKDGSSPDNDEIDDNLVNILSSTMGYEKDEIYESLESSEDTPAFNEIRDAYMLIKENKSLIKDMKANKSVSDELDTFLSQSPPTFQQQSKSHQKSQVDHETAKQHARRMASAITQQRTYHQSPFMDQYKEEDSTVSILPTSLPQIHRANMLAQGSPAASKISPLVTKKSKTRWHFGIRSRSYPLDVMGEIYIALKNLGAEWAKPSEEDLWTIKLRWKYDIGNKTNTNEKIPDLMKMVIQLFQIETNNYLVDFKFDGWESSYGDDTTVSNISEDEMSTFSAYPFLHLTTKLIMELAVNSQSN

binding [2]: binds
B2: overexpressed Gcs1 R54K, GAP-dead mutant of Gcs1 (protein, UniProt P35197 1-352)
chain: MSDWKVDPDTRRRLLQLQKIGANKKCMDCGAPNPQWATPKFGAFICLECAGIHKGLGVHISFVRSITMDQFKPEELLRMEKGGNEPLTEWFKSHNIDLSLPQKVKYDNPVAEDYKEKLTCLCEDRVFEEREHLDFDASKLSATSQTAASATPGVAQSREGTPLENRRSATPANSSNGANFQKEKNEAYFAELGKKNQSRPDHLPPSQGGKYQGFGSTPAKPPQERSAGSSNTLSLENFQADPLGTLSRGWGLFSSAVTKSFEDVNETVIKPHVQQWQSGELSEETKRAAAQFGQKFQETSSYGFQAFSNFTKNFNGNAEDSSTAGNTTHTEYQKIDNNDKKNEQDEDKWDDF

binding [3]: no binding
B3: endogenous Gcs1 (protein, UniProt P35197 1-352)
chain: B2 chain with K54R
